Measurements taken from PubChem BioAssay AID2060336 (Molecular Pharmacology Branch, DTP, NCI, 2025).
A number of entries come with more than one value. They are shown here; other results are not. The source may hold further records. The values listed for one entry are repeated measurements across runs, samples, wells, individuals or studies.

Test system: 958767-090-R-J1-PDC spheroid growth
Assay: Anticancer human tumor 958767-090-R-J1-PDC patient-derived head and neck squamous carcinoma cell line growth inhibition [IpAb]
Settings: spheroids with HUVEC and MSC; for viability, T/C: stronger effect = lower value
Text: Combinatorial screen of targeted agents with ipatasertib and abemaciclib in multi-cell type tumor spheroids
A high-throughput screen of multi-cell type tumor spheroids was designed to identify active combinations of targeted small molecules and ipatasertib or abemaciclib. Complex spheroids include a stromal component modeled by human endothelial cells (HUVEC) and fibroblasts modeled by human mesenchymal stem cells (MSCs). The concentration ranges selected for each drug and investigational agent were based upon clinically achievable concentrations if the clinical Cmax of the agent was known.
Compounds. The drugs and investigational agents: ipatasertib (NSC767898), abemaciclib(NSC768073), selumetinib (NSC741078), trametinib (758246), adavosertib (NSC754352), everolimus (NSC733504), sapanisertib (NSC764658), vemurafenib (NSC761431), venetoclax (NSC766270), copanlisib (NSC809693), apelisib (NSC765974), palbociblib (NSC758247), vemurafenib (NSC761431), dabrafenib (NSC764134), ravoxertinib (NSC781343), BMS-387032 (NSC767048), sotorasib (NSC818433), talazoparib (NSC767125) and afursertib (NSC778305), were obtained from the National Cancer Institute (NCI) Developmental Therapeutics Program Chemical Repository. The FDA-approved anticancer drug set is available from the NCI Developmental Therapeutics Program. […] The stock solutions were prepared in dimethyl sulfoxide (DMSO, Sigma-Aldrich, St. Louis, MO, cat. D2650) at 800-fold the tested concentration and stored at -70 degrees C prior to their use. All drugs and investigational agents were tested over a range starting from a high concentration at or near the clinical Cmax and decreasing in half-log increments. If the clinical Cmax for an agent had not been determined, the highest concentration tested was 10 microM.
NCI60 Cell Culture. NCI60 cell lines were obtained from the NCI Developmental Therapeutics Program Tumor Repository. For each lot of cells, the Repository performed Applied Biosystems AmpFLSTR Identifiler testing with PCR amplification to confirm consistency with the published Identifier STR profile for each cell line. Cells were kept in continuous culture for no more than 20 passages. The optimal seeding densities for each of the cell lines at each time point assessed were determined prior to performing the concentration response studies. Briefly, the NCI60 human tumor lines were grown as monolayers in RPMI 1640 medium supplemented with 10% FBS and 2 mmol/L L-glutamine.
An additional 9 lines were from the NCI60 cell line panel including MDA-MB-231 breast carcinoma, MDA-MB-468 breast carcinoma, MCF7 breast carcinoma, Hs578T breast carcinoma, MALME-3M melanoma, SK-MEL-2 melanoma, SK-OV-3 ovarian carcinoma, DU-145 prostate carcinoma, PC-3 prostate carcinoma, all cell lines along with major genetic alterations are listed on Table 2. Pooled donor human umbilical vein endothelial cells (HUVEC, Lonza, cat. CC-2519) and human mesenchymal stem cells (hMSC, Lonza, cat. PT-2501) were purchased from Lonza (Walkersville, MD).
PDMR cell lines were grown in complete medium (DC medium): Dulbecco's modified Eagle's medium (DMEM)/F12 supplemented with 5% fetal bovine serum (FBS), 2 mM L-glutamine, 100 U/mL penicillin and 100 µg/ml streptomycin, 0.4 µg/ml hydrocortisone, 10 ng/ml epidermal growth factor (EGF) recombinant human protein, 24 µg/mL adenine, and 0.1 mg/mL primocin. During culture from frozen stock vials, PDMR cells were cultured in the same medium containing 10 µM Y-27632 (see Table 3). The PDCs were cultured in complete DMEM/F12 media without 10 microM Y-27632 dihydrochloride for at least two passages prior to the screen. The pooled donor HUVEC and hMSC were cultured in endothelial cell growth medium 2 (PromoCell, Heidelberg, Germany, cat. C-22011) and mesenchymal stem cell growth medium 2 (PromoCell, cat. C-28009), respectively. For all experiments, HUVEC and hMSC were used at passages </=5.
[…]
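Also: spheroids exposed to agents for 7 days.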
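For viability, T/C in this document: 100% = DMSO vehicle control wells.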

Structure (SMILES) | viability, T/C (compound alone 0.01 µM) | viability, T/C (compound alone 0.0316 µM) | viability, T/C (compound alone 0.316 µM) | viability, T/C (compound alone 3.16 µM) | viability, T/C (compound alone 10 µM) | IC50 (compound alone, run of 06/01/2021)
CCN1CCN(Cc2ccc(Nc3ncc(F)c(-c4cc(F)c5nc(C)n(C(C)C)c5c4)n3)nc2)CC1 | 90.9, 82.5, 84.7, 86.8, 101, 87.9, 71.2, 93.5, 86.5, 75.9, 79.4, 78.7, 83.6% | 86.7, 93.3, 63.6, 86.3, 85, 71.7, 71, 83.4, 78, 71.3, 77, 81.1, 91.9% | 75.8, 68.4, 65.8, 69.4, 70.5, 58.6, 63.5, 74.6, 56.2, 74.8, 81.6, 74.5, 73.8% | – | – | –
CC(C)NCC(C(=O)N1CCN(c2ncnc3c2C(C)CC3O)CC1)c1ccc(Cl)cc1 (configuration not stated) | – | – | 83.4, 62.7, 69.5, 73.4, 69, 56.1, 54.7, 75.7, 84.4, 63.7, 65.7, 73.6, 81.7% | 59.8, 43.9, 54.1, 60.2, 66.5, 47, 39.9, 56.2, 64.7, 51, 51.9, 54.7, 70.4% | 54, 35.2, 48.9, 53.3, 57.7, 36.1, 28.2, 55, 70.9, 37.7, 35.8, 41.1, 64.5% | 7.97 µM, 1.1 µM, 933 nM, 7.73 µM, > 10 µM, 670 nM, 745 nM, 1.64 µM, 1.02 µM, 2.86 µM
